We go through 172 sequences from publication PMC6212790.

The other results are listed elsewhere or left out. At the low end of the ranking, values are background and their order means little.

This test has as its target T1, GST-Rok (full length) (UniProt O34857).
T1 sequence: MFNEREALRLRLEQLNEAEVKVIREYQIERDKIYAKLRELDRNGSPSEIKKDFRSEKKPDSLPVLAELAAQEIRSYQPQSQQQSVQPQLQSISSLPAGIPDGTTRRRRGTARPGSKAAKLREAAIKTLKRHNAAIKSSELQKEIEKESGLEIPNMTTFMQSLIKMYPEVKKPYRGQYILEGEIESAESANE
Briefly: protein binding microarray.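 Note: rank score from −0.5 (least bound) to 0.5 (best bound).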 Conditions: Rok is a gene silencer of Bacillus subtilis; high values mean tight binding; most listed sequences are background and not binding sites; double strand, one strand shown.
For the sequence AATCTGCG, the binding signal amounted to 0.12 E-score.

The sequence AAGTACTA yielded a binding signal of 0.389 E-score.

As for ATTTAGGA, the binding signal worked out at 0.0912 E-score.

Take AAGCTGTG: the binding signal was -0.215 E-score.

Take TATGGTGA: the binding signal worked out at 0.0651 E-score.

As to ACGTTAGA, the binding signal was determined as 0.156 E-score.

Turning to ATATGTGA, the binding signal was found to be 0.289 E-score.

ATCTAATA returned a binding signal of 0.313 E-score.

In the case of AACGTAGT, the binding signal was found to be 0.0637 E-score.

Regarding ACGCTCTG, the binding signal was -0.166 E-score.

The sequence CCCGGTGC gave a binding signal of -0.425 E-score.

The sequence GCAACCAC yielded a binding signal of 0.0207 E-score.

In the case of AAAGGCGC, the binding signal was -0.244 E-score.

CCGGTTAC displayed a binding signal of -0.0649 E-score.

The sequence ATTGGTAG displayed a binding signal of 0.371 E-score.

Regarding CCCTATTA, the binding signal was found to be 0.139 E-score.

In turn, CGAAGACC had a binding signal of -0.141 E-score.

Take CTCACGCA: the binding signal came to 0.0487 E-score.

AAGGGCTA gave a binding signal of -0.211 E-score.

For CGAAACCC, the binding signal is -0.231 E-score.

Sequence CGCCTGGA registered a binding signal of -0.213 E-score.

Sequence AGCACATA gave a binding signal of 0.0447 E-score.

ACTGTCTA: the binding signal was -0.118 E-score.

The sequence CGCGGAAC showed a binding signal of -0.156 E-score.

ATTAAGAC returned a binding signal of -0.0587 E-score.

The sequence CCAAAGCA showed a binding signal of -0.138 E-score.

GCCCGAAA had a binding signal of -0.17 E-score.

AAGCCATT gave a binding signal of -0.129 E-score.

Regarding TCACCTAA, the binding signal stood at 0.082 E-score.

For the sequence ACGATACC, the binding signal was -0.0445 E-score.

The sequence ACGCAGAC had a binding signal of -0.167 E-score.

Sequence ATGTAGGG yielded a binding signal of 0.0923 E-score.

Take CACCGCAG: the binding signal is -0.203 E-score.

Turning to AGAAAGAA, the binding signal stood at 0.0909 E-score.

With TCAATAGA, the binding signal turned out to be 0.0845 E-score.

Sequence CCGAACAC returned a binding signal of -0.249 E-score.

ATGACGAA had a binding signal of 0.142 E-score.

In turn, CCCTGCAG came in with a binding signal of -0.193 E-score.

On to CGAGCCCG, for which the binding signal is -0.303 E-score.

Consider AGAGGAGC, for which the binding signal is -0.242 E-score.

As for ACGCGAAA, the binding signal was -0.0244 E-score.

As to AGGGGGAA, the binding signal is -0.113 E-score.

The sequence CCCCAGAC showed a binding signal of -0.315 E-score.

The sequence CGTCGGTC displayed a binding signal of -0.154 E-score.

In turn, GATTTTCC had a binding signal of 0.00285 E-score.

Regarding GTACTTAA, the binding signal was 0.275 E-score.

AATAAAAT gave a binding signal of 0.292 E-score.

Turning to CGAACCCA, the binding signal was -0.0636 E-score.

Consider CCGAGGCA, for which the binding signal is -0.0194 E-score.

The sequence AATCAACG showed a binding signal of -0.00845 E-score.

On to CAATACGC, for which the binding signal was -0.0523 E-score.

In turn, GACCTAGA showed a binding signal of -0.0649 E-score.

As to GCCATGAA, the binding signal was -0.244 E-score.

Regarding ACGCATGC, the binding signal was -0.046 E-score.

CCTTGGCG returned a binding signal of -0.147 E-score.

In turn, CCCACACC had a binding signal of -0.0663 E-score.

Turning to TCCTGTAA, the binding signal stood at 0.0805 E-score.

ATGGAAAT displayed a binding signal of -0.0689 E-score.

In turn, ACCAACCA gave a binding signal of -0.116 E-score.

CAGGAACA showed a binding signal of -0.106 E-score.

For the sequence GAAGACAC, the binding signal was 0.118 E-score.

As for ATATTGTC, the binding signal was found to be 0.255 E-score.

AAGCCTTG came in with a binding signal of -0.186 E-score.

Sequence GAAGCAAA came in with a binding signal of -0.0122 E-score.

CATACCCA gave a binding signal of 0.125 E-score.

Sequence CGACAAAA showed a binding signal of 0.072 E-score.

In the case of CTCCCTAC, the binding signal was -0.27 E-score.

In the case of ACGTTGCT, the binding signal worked out at 0.0646 E-score.

For the sequence AGCGCTGC, the binding signal was -0.226 E-score.

The sequence CCTATAAA came in with a binding signal of 0.298 E-score.

As to ATACGAGG, the binding signal is -0.0656 E-score.

In turn, AAAGCTAC gave a binding signal of 0.262 E-score.

In turn, GAAAATAA registered a binding signal of 0.145 E-score.

Take AAAAACAC: the binding signal was found to be 0.0452 E-score.

In turn, AAGTCCCT displayed a binding signal of -0.0919 E-score.

CTCCTTAA had a binding signal of -0.19 E-score.

The sequence GAGCCCTA gave a binding signal of -0.26 E-score.

ACCAAGCA returned a binding signal of 0.126 E-score.

On to CCAAGTTA, for which the binding signal was 0.137 E-score.

AATATGAA yielded a binding signal of 0.13 E-score.

Regarding CTGATGTA, the binding signal turned out to be 0.291 E-score.

As for CCGCTTAA, the binding signal is -0.129 E-score.

Sequence TAAAACCA gave a binding signal of 0.103 E-score.

On to TCACTAAA, for which the binding signal is 0.166 E-score.

In the case of TACAAGTA, the binding signal turned out to be 0.288 E-score.

Sequence ACCGCTAC gave a binding signal of 0.137 E-score.

In turn, CCGCGCCA returned a binding signal of -0.295 E-score.

Take GACACGGA: the binding signal was -0.0973 E-score.

As to GCATAAAC, the binding signal stood at 0.121 E-score.

The sequence AGTAAATA had a binding signal of 0.387 E-score.

Regarding CGTGCTAA, the binding signal is -0.0203 E-score.

In turn, CCTATTAA gave a binding signal of 0.0748 E-score.

In turn, AGCAAGAG returned a binding signal of -0.0216 E-score.

CGTAGATC registered a binding signal of 0.21 E-score.

For AGAGTACG, the binding signal came to 0.0142 E-score.

Take ACCCTCCC: the binding signal was -0.137 E-score.

Regarding CCTCAGTA, the binding signal came out at 0.0795 E-score.

TTAGCTAA showed a binding signal of 0.129 E-score.

CCTGATCC: the binding signal is -0.354 E-score.

CTAGGCAA came in with a binding signal of 0.0422 E-score.

Sequence ATTGATCA displayed a binding signal of 0.101 E-score.

GATGGGTA displayed a binding signal of 0.0804 E-score.

For the sequence ACGATTGG, the binding signal was found to be 0.0241 E-score.

As for AGGAAGTC, the binding signal is -0.31 E-score.

In turn, AAGCGTCG came in with a binding signal of -0.184 E-score.

Consider GATTGAAA, for which the binding signal came to 0.0292 E-score.

For AGGGGCAC, the binding signal is -0.364 E-score.

Regarding AGTGATCA, the binding signal was -0.0418 E-score.

AGTGGTAT: the binding signal was determined as 0.301 E-score.

For the sequence AATGAATC, the binding signal was found to be 0.207 E-score.

Sequence CACAAGAA displayed a binding signal of -0.0726 E-score.

For the sequence GGCACGCC, the binding signal was -0.366 E-score.

Regarding GAGAGACA, the binding signal is -0.0673 E-score.

Consider CGACTAAA, for which the binding signal is -0.0868 E-score.

On to GGATAGAC, for which the binding signal is -0.148 E-score.

AGCGACTA: the binding signal is -0.0166 E-score.

In turn, CTTACGCC registered a binding signal of -0.017 E-score.

Sequence AATTAGGT returned a binding signal of 0.178 E-score.

Regarding CCCAATCG, the binding signal is -0.163 E-score.

For the sequence CACAACCA, the binding signal is -0.129 E-score.

In the case of AGGACGAA, the binding signal was -0.206 E-score.

In turn, GCTTTACA came in with a binding signal of 0.0417 E-score.

With CACGTCTC, the binding signal is -0.183 E-score.

For the sequence CTTCGTAA, the binding signal is -0.101 E-score.

The sequence AATTCTGA returned a binding signal of 0.179 E-score.

Take CCTACTCA: the binding signal stood at 0.114 E-score.

GCCCTGTA showed a binding signal of -0.175 E-score.

The sequence AACTCCAG came in with a binding signal of -0.0103 E-score.

Take ATAGTTTC: the binding signal is 0.398 E-score.

Turning to CTGTTAAG, the binding signal was -0.0725 E-score.

For CCCCTGAA, the binding signal is -0.363 E-score.

In turn, CTTGGATC returned a binding signal of -0.194 E-score.

As for AATGCGGA, the binding signal was -0.0975 E-score.

As to AAGAATTC, the binding signal came to 0.225 E-score.

Sequence ACGAGCAA gave a binding signal of -0.061 E-score.

Take CTGGCTGA: the binding signal was -0.223 E-score.

Sequence ACAGCCGC showed a binding signal of -0.136 E-score.

The sequence ACGTATGC returned a binding signal of 0.0834 E-score.

Turning to TAAGTATA, the binding signal stood at 0.155 E-score.

Turning to CACCTAAC, the binding signal was determined as 0.06 E-score.

The sequence CAGACGGG yielded a binding signal of -0.323 E-score.

Turning to CGTATTCA, the binding signal turned out to be 0.132 E-score.

As to CATCCAGC, the binding signal is -0.135 E-score.

ACGGGAAG displayed a binding signal of -0.0949 E-score.

In turn, GACATGTC registered a binding signal of -0.17 E-score.

ATATGGCA had a binding signal of 0.0716 E-score.

Sequence AAGCTGCC displayed a binding signal of -0.0576 E-score.

In the case of GCAAAAGA, the binding signal was -0.14 E-score.

For the sequence CGCCCGCC, the binding signal is -0.282 E-score.

Sequence AACCCGCC showed a binding signal of -0.157 E-score.

CGACTACA: the binding signal worked out at 0.0566 E-score.

Sequence ATCTCGAC yielded a binding signal of 0.0592 E-score.

Sequence CCGGACCG displayed a binding signal of -0.109 E-score.

CGTGGACC showed a binding signal of -0.308 E-score.

Consider ATTCTGCC, for which the binding signal is -0.00526 E-score.

In the case of CCAATCGC, the binding signal was -0.041 E-score.

The sequence AAGCTACA registered a binding signal of 0.265 E-score.

With GCGCATTA, the binding signal turned out to be 0.182 E-score.

GGGCTTAC: the binding signal is -0.238 E-score.

Turning to GGTGTCTA, the binding signal was -0.198 E-score.

ACCGCGGT yielded a binding signal of -0.333 E-score.

Take ATGTTTTG: the binding signal was 0.148 E-score.

Sequence AACTTGTC registered a binding signal of -0.0088 E-score.

Take CTCTCTAA: the binding signal is -0.0455 E-score.

GGATGTAA had a binding signal of 0.182 E-score.

AGGGCGTC yielded a binding signal of -0.433 E-score.

In turn, CACATGCC had a binding signal of -0.234 E-score.

The sequence CAGCGATG returned a binding signal of -0.0207 E-score.

With AATAGTGT, the binding signal is 0.292 E-score.

With ACTCTAGG, the binding signal is -0.135 E-score.

In turn, AGCAAACT came in with a binding signal of 0.248 E-score.

Take GAGAGCCA: the binding signal was -0.156 E-score.
